The test system of one assay is HSkMC. In words: cytotoxicity call (relative viability < 0.9). The note with it: 10 µM.
The test system of a further assay is HepG2. In words: cytotoxicity call (relative viability < 0.9). The note with it: 10 µM.
In a further assay the test system is S. aureus RN4220. In words: growth inhibition call (relative growth <= 0.2). The note with it: 50 µM.

For 25 compounds, cytotoxicity call and growth inhibition call results are on record in the antibiotic and cytotoxicity screens of Wong et al. (2023).

The list shows a part of the results.

On to `C[C@@H]1CN([C@@H](C)CO)C(=O)c2cccc(NC(=O)C3CCOCC3)c2O[C@@H]1CN(C)S(=O)(=O)c1cn(C)cn1`, for which the cytotoxicity call in the assay on HSkMC and in the assay with HepG2 was “inactive” each time. The growth inhibition call with S. aureus RN4220 was “inactive”.
As to `C[C@@H]1CCCCO[C@H](CN(C)S(=O)(=O)c2cn(C)cn2)[C@@H](C)CN([C@@H](C)CO)C(=O)c2cc(NS(=O)(=O)c3cccs3)ccc2O1`, the cytotoxicity call in the assay with HSkMC and with HepG2 was “inactive” throughout. Further, in the assay with S. aureus RN4220, the growth inhibition call was “inactive”.
For `COc1cc([C@@H]2c3cc4c(cc3[C@@H](O[C@@H]3O[C@@H]5CO[C@@H](C)O[C@H]5[C@H](O)[C@H]3O)[C@H]3COC(=O)[C@H]23)OCO4)cc(OC)c1O`, the cytotoxicity call in the assay on HSkMC and with HepG2 was “active” in each case. For the same compound, the growth inhibition call with S. aureus RN4220 was “active”.
Turning to `CCOc1ccnc2c1c(=O)n(CC(N)=O)c(=O)n2C`, the cytotoxicity call in the assay with HSkMC and in the assay with HepG2 was “inactive” each time. The growth inhibition call with S. aureus RN4220 was “inactive”.
On to `Cc1noc(C)c1NC(=O)Nc1ccc2c(c1)C(=O)N([C@H](C)CO)C[C@H](C)[C@H](CN(C)C(=O)NC1CCCCC1)OCCCC[C@@H](C)O2`, for which the cytotoxicity call in the assay on HSkMC and with HepG2 was “inactive” throughout. Besides, the growth inhibition call in the assay with S. aureus RN4220 was “inactive”.
As for `COc1ccc(S(=O)(=O)N(C)C[C@H]2Oc3ccc(NS(=O)(=O)c4cn(C)cn4)cc3C(=O)N([C@H](C)CO)C[C@@H]2C)cc1`, the cytotoxicity call in the assay with HSkMC and in the assay on HepG2 was “inactive” in each case. Besides, the growth inhibition call in the assay on S. aureus RN4220 was “inactive”.
Take `CN(C)CC(=O)N[C@H]1CC[C@@H](CCNS(=O)(=O)c2ccccc2)O[C@H]1CO`: the cytotoxicity call with HSkMC and with HepG2 was “inactive” in each case. The growth inhibition call in the assay on S. aureus RN4220 is “inactive”.
In the case of `CN(C)C(=O)c1ccc(-c2cccc(-c3nc(C(=O)NC4CCCC4)cc4c3[C@@H](CCO)N([S@](=O)C(C)(C)C)C4)c2)cc1`, the cytotoxicity call with HSkMC and in the assay on HepG2 was “inactive” throughout. Besides, the growth inhibition call with S. aureus RN4220 was “inactive”.
Regarding `C[C@H]1CN([C@@H](C)CO)C(=O)c2cc(Br)cnc2O[C@@H]1CN(C)S(=O)(=O)c1cn(C)cn1`, the cytotoxicity call in the assay with HSkMC and in the assay with HepG2 was “inactive” throughout. Also, in the assay on S. aureus RN4220, the growth inhibition call is “inactive”.
As to `COC(=O)c1c2oc(c1C(=O)OC)C(=O)N[C@@H](Cc1ccccc1)Cn1cc(nn1)CNC(=O)[C@@H](Cc1ccccc1)NC(=O)N[C@@H](COC(=O)NCCCCCC(=O)NO)CC2`, the cytotoxicity call with HSkMC and with HepG2 was “inactive” throughout. Also, the growth inhibition call in the assay on S. aureus RN4220 was “inactive”.
Take `CN(C)Cc1cn(CC[C@H]2CC[C@@H](N)[C@H](CO)O2)nn1`: the cytotoxicity call with HSkMC and in the assay on HepG2 was “inactive” throughout. For the same compound, the growth inhibition call in the assay with S. aureus RN4220 is “inactive”.
As to `C[C@@H]1CN([C@@H](C)CO)C(=O)c2c(c3ccccc3n2C)-c2ccccc2CO[C@H]1CN(C)C(=O)c1cc(Cl)cc(Cl)c1`, the cytotoxicity call in the assay with HSkMC and in the assay on HepG2 was “inactive” each time. Moreover, the growth inhibition call with S. aureus RN4220 is “inactive”.
For the compound `C[C@@H]1OC2=C(Cl)C(=O)N3CCC[C@@H]3C[C@]21O`, the cytotoxicity call in the assay on HSkMC and with HepG2 was “inactive” in each case. Moreover, the growth inhibition call in the assay with S. aureus RN4220 is “inactive”.
For the compound `Cc1ccc(S(=O)(=O)Nc2ccc3c(c2)CC(=O)N([C@H](C)CO)C[C@H](C)[C@@H](CN(C)S(=O)(=O)c2ccccc2)O3)cc1`, the cytotoxicity call with HSkMC and in the assay on HepG2 was “inactive” in each case. For the same compound, in the assay with S. aureus RN4220, the growth inhibition call was “inactive”.
`CCS(=O)(=O)N1CC[C@H]2[C@H](CC1)S(=O)(=O)CCN2C(=O)c1ccccc1`: the cytotoxicity call in the assay with HSkMC and in the assay with HepG2 was “inactive” throughout. The growth inhibition call with S. aureus RN4220 was “inactive”.
Regarding `CC(C)(C)NC(=O)C1CCC2C3CCC4NC(=O)C=CC4(C)C3CCC12C` (stereo not given), the cytotoxicity call in the assay with HSkMC and with HepG2 was “inactive” each time. For the same compound, the growth inhibition call in the assay on S. aureus RN4220 is “inactive”.
In the case of `CN(C)CC(=O)N1[C@@H]2c3ccc(-c4ccncc4)c(=O)n3C[C@H]1[C@H](CO)[C@H]2C(=O)NC1CCC1`, the cytotoxicity call in the assay on HSkMC and in the assay with HepG2 was “inactive” each time. The growth inhibition call with S. aureus RN4220 is “inactive”.
As to `C[C@@H]1CCCCO[C@H](CN(C)Cc2ccc3c(c2)OCO3)[C@@H](C)CN([C@H](C)CO)C(=O)c2cc(NC(=O)NC3CCCCC3)ccc2O1`, the cytotoxicity call in the assay with HSkMC and in the assay on HepG2 was “inactive” throughout. For the same compound, in the assay with S. aureus RN4220, the growth inhibition call is “inactive”.
With `C[C@H]1CN([C@@H](C)CO)C(=O)c2cccc(NC(=O)Nc3cccc4ccccc34)c2O[C@H]1CN(C)C(=O)Nc1ccccc1`, the cytotoxicity call in the assay with HSkMC and in the assay on HepG2 was “inactive” throughout. In addition, the growth inhibition call with S. aureus RN4220 is “inactive”.
With `Cc1ccc(S(=O)(=O)N(C)C[C@@H]2Oc3ccc(NC(=O)C4CC4)cc3C(=O)N([C@@H](C)CO)C[C@@H]2C)cc1`, the cytotoxicity call with HSkMC and with HepG2 was “inactive” each time. Further, the growth inhibition call in the assay on S. aureus RN4220 is “inactive”.
For `COc1ccc(S(=O)(=O)Nc2cccc3c2O[C@H](CN(C)S(=O)(=O)c2cn(C)cn2)[C@@H](C)CN([C@@H](C)CO)C3=O)cc1`, the cytotoxicity call in the assay with HSkMC and in the assay on HepG2 was “inactive” each time. In addition, the growth inhibition call with S. aureus RN4220 is “inactive”.
Regarding `COc1ccc(S(=O)(=O)N(C)C[C@H]2OCCCC[C@H](C)Oc3ccc(NS(C)(=O)=O)cc3C(=O)N([C@H](C)CO)C[C@H]2C)cc1`, the cytotoxicity call with HSkMC and in the assay on HepG2 was “inactive” in each case. In addition, in the assay on S. aureus RN4220, the growth inhibition call was “inactive”.
Take `Cc1ccc(S(=O)(=O)Nc2ccc3c(c2)C(=O)N([C@@H](C)CO)C[C@H](C)[C@@H](CN(C)C(=O)c2ccccc2)OCCCC[C@@H](C)O3)cc1`: the cytotoxicity call in the assay on HSkMC and with HepG2 was “inactive” throughout. The growth inhibition call in the assay with S. aureus RN4220 is “inactive”.
For the compound `O=C(C[C@@H]1CC[C@@H]2[C@H](COC[C@@H](O)CN2S(=O)(=O)c2ccccc2)O1)NCc1ccncn1`, the cytotoxicity call in the assay with HSkMC and with HepG2 was “inactive” throughout. The growth inhibition call with S. aureus RN4220 is “inactive”.
Regarding `C[C@H](CO)N1C[C@H](C)[C@@H](CN(C)C(=O)Nc2cc(F)ccc2F)Oc2cc(/C=C/c3ccccc3)ccc2S1(=O)=O`, the cytotoxicity call in the assay on HSkMC (human skeletal muscle cells) and in the assay on HepG2 was “inactive” in each case. In the assay on S. aureus RN4220, the growth inhibition call is “inactive”.
